Results on 28 molecules are retold here after the antibiotic and cytotoxicity screens of Wong et al. (2023).

One assay concerns HSkMC. Nature of the assay: cytotoxicity call (relative viability < 0.9). The following applies: 10 µM.
The subject of another assay is HepG2. As to the kind of experiment: cytotoxicity call (relative viability < 0.9). The following applies: 10 µM.
In the next assay the test system is S. aureus RN4220. As to the kind of experiment: growth inhibition call (relative growth <= 0.2). The settings on record: 50 µM.

SMILES strings stand for the structures. The list shows a part of the results.

Turning to `O=C(C[C@H]1CC[C@@H]2[C@H](COC[C@H](O)CN2C(=O)Nc2cccc(Cl)c2)O1)NCc1ccccc1F`, the cytotoxicity call in the assay with HSkMC and in the assay on HepG2 was “inactive” in each case. The growth inhibition call in the assay on S. aureus RN4220 was “inactive”.

Regarding `COc1ccc(NC(=O)N(C)C[C@H]2OCCCC[C@@H](C)Oc3ccc(NC(=O)Nc4c(C)noc4C)cc3C(=O)N([C@H](C)CO)C[C@H]2C)cc1`, the cytotoxicity call with HSkMC and in the assay with HepG2 was “inactive” each time. For the same molecule, in the assay with S. aureus RN4220, the growth inhibition call is “inactive”.

With `C[C@@H]1CN([C@H](C)CO)C(=O)c2cccc(NS(C)(=O)=O)c2O[C@@H]1CN(C)C(=O)Nc1ccc2c(c1)OCO2`, the cytotoxicity call in the assay with HSkMC and in the assay with HepG2 was “inactive” in each case. Also, the growth inhibition call in the assay with S. aureus RN4220 is “inactive”.

Regarding `Cc1ccc(S(=O)(=O)Nc2ccc3c(c2)C(=O)N([C@@H](C)CO)C[C@H](C)[C@H](CN(C)Cc2ccc(C(=O)O)cc2)OCCCC[C@H](C)O3)cc1`, the cytotoxicity call in the assay on HSkMC and in the assay with HepG2 was “inactive” in each case. In addition, in the assay with S. aureus RN4220, the growth inhibition call is “inactive”.

On to `C[C@H]1CN([C@@H](C)CO)C(=O)c2cccc(NC(=O)Nc3ccc(C(F)(F)F)cc3)c2O[C@H]1CN(C)Cc1ccc(Oc2ccccc2)cc1`, for which, in the assay with HSkMC, the cytotoxicity call was “active”. For the same molecule, in the assay on HepG2, the cytotoxicity call is “inactive”. In the assay with S. aureus RN4220, the growth inhibition call was “inactive”.

For `C[C@H](CO)N1C[C@H](C)[C@@H](CN(C)Cc2ccc(Oc3ccccc3)cc2)Oc2ccc(NS(=O)(=O)c3cccs3)cc2C1=O`, the cytotoxicity call with HSkMC and in the assay with HepG2 was “inactive” in each case. Moreover, in the assay with S. aureus RN4220, the growth inhibition call is “inactive”.

`C[C@@H]1CCCCO[C@H](CN(C)S(=O)(=O)c2cn(C)cn2)[C@@H](C)CN([C@@H](C)CO)C(=O)c2cc(NC(=O)Nc3ccc(C(F)(F)F)cc3)ccc2O1`: the cytotoxicity call with HSkMC and in the assay on HepG2 was “inactive” in each case. In addition, in the assay on S. aureus RN4220, the growth inhibition call is “inactive”.

For the molecule `O=C(CCCCC(=O)N/N=C/[C@H](O)[C@@H](O)[C@H](O)[C@H](O)CO)NO`, the cytotoxicity call in the assay on HSkMC and in the assay with HepG2 was “inactive” each time. The growth inhibition call with S. aureus RN4220 was “inactive”.

`NCc1ccc(C(N)=O)cc1`: the cytotoxicity call in the assay with HSkMC and in the assay with HepG2 was “inactive” throughout. The growth inhibition call in the assay on S. aureus RN4220 is “inactive”.

As for `COc1ccccc1-c1ccc2c(c1)O[C@@H](CN(C)S(=O)(=O)c1ccccc1)[C@H](C)CN([C@@H](C)CO)S2(=O)=O`, the cytotoxicity call with HSkMC and in the assay with HepG2 was “inactive” throughout. Moreover, the growth inhibition call in the assay with S. aureus RN4220 is “inactive”.

With `C[C@@H]1CN([C@@H](C)CO)C(=O)c2cc(NC(=O)c3ccncc3)ccc2O[C@@H](C)CCCCO[C@H]1CN(C)C(=O)Nc1ccc(F)cc1`, the cytotoxicity call in the assay with HSkMC and in the assay on HepG2 was “inactive” each time. Also, the growth inhibition call with S. aureus RN4220 is “inactive”.

As to `COCC(=O)N1CC[C@]2(CCOC2)C1`, the cytotoxicity call in the assay on HSkMC and in the assay on HepG2 was “inactive” in each case. In addition, the growth inhibition call with S. aureus RN4220 is “inactive”.

Regarding `CN1C(=O)c2cc(NC(=O)C3CCCC3)ccc2OC[C@@H]2O[C@@H](CC(=O)NCCc3ccncc3)CC[C@H]21`, the cytotoxicity call in the assay on HSkMC and in the assay with HepG2 was “inactive” in each case. For the same molecule, the growth inhibition call with S. aureus RN4220 is “inactive”.

As for `COc1ccc(S(=O)(=O)Nc2cccc3c2O[C@H](CN(C)Cc2ccc(Cl)c(Cl)c2)[C@@H](C)CN([C@H](C)CO)C3=O)cc1`, the cytotoxicity call in the assay with HSkMC and in the assay with HepG2 was “inactive” in each case. Besides, the growth inhibition call with S. aureus RN4220 was “inactive”.

`COC(=O)c1cc(S(=O)(=O)N2CCOCC2)cn1C`: the cytotoxicity call in the assay with HSkMC and in the assay on HepG2 was “inactive” throughout. For the same molecule, the growth inhibition call in the assay with S. aureus RN4220 is “inactive”.

`COc1cc2ccnc(CCCN)c2cc1OC`: the cytotoxicity call in the assay on HSkMC and with HepG2 was “inactive” in each case. Moreover, the growth inhibition call in the assay with S. aureus RN4220 is “inactive”.

Turning to `C[C@@H]1CN([C@@H](C)CO)C(=O)c2cc(NC(=O)Nc3ccc4c(c3)OCO4)ccc2O[C@@H](C)CCCCO[C@H]1CN(C)Cc1ccncc1`, the cytotoxicity call with HSkMC and in the assay with HepG2 was “inactive” in each case. Further, the growth inhibition call in the assay on S. aureus RN4220 was “inactive”.

For `C[C@@H]1CCCCO[C@H](CN(C)Cc2ccc(C(F)(F)F)cc2)[C@H](C)CN([C@@H](C)CO)C(=O)c2cc(N(C)C)ccc2O1`, the cytotoxicity call in the assay with HSkMC and with HepG2 was “inactive” each time. Besides, the growth inhibition call in the assay with S. aureus RN4220 was “inactive”.

For `C[C@H](CO)N1C[C@H](C)[C@@H](CN(C)C(=O)NC2CCCCC2)Oc2ccc(NC(=O)CCN3CCOCC3)cc2CC1=O`, the cytotoxicity call with HSkMC and in the assay on HepG2 was “inactive” each time. The growth inhibition call in the assay on S. aureus RN4220 is “inactive”.

On to `C[C@@H]1CN([C@@H](C)CO)C(=O)c2cc(NC(=O)c3ccccc3)ccc2O[C@@H](C)CCCCO[C@@H]1CN(C)C(=O)Nc1ccc(C(F)(F)F)cc1`, for which, in the assay with HSkMC, the cytotoxicity call is “inactive”. In the assay with HepG2, the cytotoxicity call was “active”. Further, the growth inhibition call with S. aureus RN4220 was “inactive”.

For the molecule `Cc1ccc(N(CC(=O)O)S(C)(=O)=O)cc1`, the cytotoxicity call with HSkMC and with HepG2 was “inactive” each time. Besides, in the assay with S. aureus RN4220, the growth inhibition call was “inactive”.

Regarding `C[C@@H]1CN([C@H](C)CO)C(=O)c2cc(NS(=O)(=O)c3ccccc3)ccc2O[C@@H](C)CCCCO[C@@H]1CN(C)CC1CCCCC1`, the cytotoxicity call in the assay with HSkMC and in the assay with HepG2 was “inactive” in each case. For the same molecule, in the assay with S. aureus RN4220, the growth inhibition call was “inactive”.

Consider `C[C@H](CO)N1C[C@H](C)[C@H](CN(C)Cc2ccc(-c3ccccc3)cc2)OCc2ccccc2-c2c(n(C)c3ccccc23)C1=O`, for which, in the assay with HSkMC, the cytotoxicity call is “active”. Besides, in the assay with HepG2, the cytotoxicity call was “inactive”. Besides, the growth inhibition call with S. aureus RN4220 is “inactive”.

Take `C[C@@H]1CN([C@@H](C)CO)C(=O)c2cc(NS(C)(=O)=O)ccc2O[C@H]1CN(C)C(=O)Nc1ccccc1`: the cytotoxicity call in the assay with HSkMC and with HepG2 was “inactive” each time. Besides, in the assay with S. aureus RN4220, the growth inhibition call was “inactive”.

In the case of `CCS(=O)(=O)N1C[C@]2(CN(C2)C(=O)Nc2ccc3c(c2)OCO3)c2c(n(c3cc(ccc23)OC)C)[C@H]1CO`, the cytotoxicity call with HSkMC and in the assay on HepG2 was “inactive” each time. Besides, the growth inhibition call in the assay with S. aureus RN4220 was “inactive”.

Consider `COc1ccc(NC(=O)N(C)C[C@@H]2OCc3cnnn3CCCC(=O)N([C@H](C)CO)C[C@H]2C)c(OC)c1`, for which the cytotoxicity call in the assay with HSkMC and in the assay with HepG2 was “inactive” each time. Moreover, the growth inhibition call in the assay with S. aureus RN4220 is “inactive”.

For `FC(F)(F)c1nc2ccccc2[nH]1`, the cytotoxicity call with HSkMC and in the assay with HepG2 was “inactive” in each case. Further, in the assay with S. aureus RN4220, the growth inhibition call is “inactive”.

Take `Cc1noc(C)c1NC(=O)Nc1ccc2c(c1)C(=O)N([C@H](C)CO)C[C@H](C)[C@@H](CN(C)C(=O)Nc1ccc(F)cc1)OCCCC[C@@H](C)O2`: the cytotoxicity call in the assay on HSkMC (human skeletal muscle cells) and in the assay on HepG2 was “inactive” in each case. Also, the growth inhibition call with S. aureus RN4220 was “inactive”.
